The whole screen tested about 340,000 compounds, of which about 6,900 (2%) were called active. Rule as the data show it: active = inhibition above about 30%; inactive = below that, where a call was filed. The entries are a selection whose mix differs from that of the whole data set. Where no call is shown, the source filed none.
These compounds were tested against D(2) dopamine receptor (Homo sapiens) (UniProt P14416) (assay: HTS Assay for Allosteric Antagonists of the Human D2 Dopamine Receptor: Primary Screen for Antagonists). Settings: HEK293 TREx D2 cells, calcium flux, dopamine EC80; at 10 µM; stronger effect = higher value.
Sequence of UniProt P14416 (P14416 whole entry, looked up): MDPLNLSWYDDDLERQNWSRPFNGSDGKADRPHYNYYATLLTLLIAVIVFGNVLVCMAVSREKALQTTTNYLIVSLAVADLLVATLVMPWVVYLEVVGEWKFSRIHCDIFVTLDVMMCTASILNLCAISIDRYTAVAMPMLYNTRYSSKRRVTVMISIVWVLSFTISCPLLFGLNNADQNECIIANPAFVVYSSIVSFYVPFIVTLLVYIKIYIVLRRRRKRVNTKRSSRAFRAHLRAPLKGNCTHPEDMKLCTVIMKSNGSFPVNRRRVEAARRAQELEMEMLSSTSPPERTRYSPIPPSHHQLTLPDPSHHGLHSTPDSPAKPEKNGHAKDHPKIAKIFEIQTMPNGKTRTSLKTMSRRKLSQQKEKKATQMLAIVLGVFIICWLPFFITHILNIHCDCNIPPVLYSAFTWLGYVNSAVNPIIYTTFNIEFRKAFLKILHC
How it was run: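 Tetracycline-induced HEK293 T-REx cells expressing D2 force-coupled to calcium signalling were dye-loaded, exposed to compound for 180 s, then challenged with an EC80 of dopamine; calcium flux was followed kinetically for a further 180 s.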
Also: 0% is about no effect.

SMILES | inhibition
COc1ccc(-c2c3c(=O)n(C)c(=O)n(C)c3c3c(-c4cccc(C)c4)nc4ccccc4n23)cc1 | 15.9%
COc1ccc(S(=O)(=O)NCCCO)cc1-c1nnc2c3ccccc3c(C)nn12 | 10.3%
CCOc1ccc(NC(=O)Cn2cc(C(=O)c3ccc(CC)cc3)c(=O)c3cc(OC)c(OC)cc32)cc1 | 7.27%
COc1ccc(NS(=O)(=O)c2ccc3c(c2)CCN3C(=O)CCC(=O)O)cc1Cl | -8.75%
COc1ccc2cc3cc(C(=O)N4CCN(c5cccc(Cl)c5)CC4)sc3nc2c1 | 2.86%
CCc1ccc(CCC(=O)Nc2ccc(S(N)(=O)=O)cc2)o1 | active: 43.5%
CC(C)C(=O)N(Cc1ccccc1)S(=O)(=O)c1ccc2c(c1)oc(=O)n2C | -21%
Cc1nc2nncn2c(NCc2ccc(Cl)cc2)c1C | 6.98%
Cc1ccc(CN(C(=O)COc2ccc(Cl)c(C)c2)C2CCS(=O)(=O)C2)o1 (stereo unspecified) | -11.9%
Cc1nc2nc(SCC(=O)O)nn2c(C)c1Cc1c(F)cccc1Cl | -10.1%
Cc1ccc(Cl)cc1NC(=O)Cn1c(=O)n(CCCS(=O)(=O)C2CCCCC2)c(=O)c2ccccc21 | 12.2%
Cc1csc2nc(COC(=O)c3ccccc3NC(=O)COc3ccccc3F)cc(=O)n12 | 15.9%
CCOc1ccc(C2=NC(c3ccc(OC)cc3)=Nc3ccc(Cl)cc3N2)cc1 | -9.5%
C=CCC(CC=C)(CNC(=O)C(=O)Nc1cc(C)ccc1OC)c1ccc(OC)c(OC)c1 | -8.73%
O=C(Cn1cc(S(=O)(=O)N2CCCC2)c(S(=O)(=O)N2CCCC2)c1)Nc1cccc(F)c1 | 5.71%
COc1ccccc1CNC(=O)CN1C(=O)COc2ccc(S(=O)(=O)N3CCC(C)CC3)cc21 | 8.42%
CCOC(=O)c1cccc(NC(=O)C2CCCN(S(=O)(=O)c3ccc4c(c3)oc(=O)n4C)C2)c1 (stereo unspecified) | 20.9%
COc1ccc(NC(=O)/C(C#N)=C/c2cc(C)n(-c3ccc(F)cc3)c2C)cc1 | 16.2%
CCc1ccc(NC(=O)C(C)n2nnc3sc(-c4ccccc4)cc3c2=O)cc1 (stereo unspecified) | 14.2%
c1ccc(CCCN2CCN(c3ccccn3)CC2)cc1 | active: 75.5%
CCOc1cc(/C=C2\COc3ccccc3C2=O)cc(Br)c1OCC(=O)N(C)C | active: 44.5%
CCOC(=O)c1c(-c2ccccc2)csc1NC(=O)c1cc(-c2ccc(Br)cc2)on1 | -4.51%
Cc1nc2ccc(S(=O)(=O)CCC(=O)Nc3ccc(C)c(C)c3)cc2s1 | 1.33%
COCCCNC(=O)c1sc2nc3n(c(=O)c2c1C)CCC3 | 3.05%

SMILES | inhibition
CCOc1ccc(CCNC(=O)CCc2c(C)nc3c(-c4ccccc4)c(C)nn3c2C)cc1OCC | 6.63%
CCOc1ccc(NC(=O)CC2C(=O)N(c3ccccc3)C(=O)N2C2CCCCC2)cc1 (stereo unspecified) | 4.66%
Cc1cc(N2CCCCC2)nc(N)n1 | active: 60.1%
Cc1nc(Nc2ccc(Cl)cc2)cc(-c2ccccc2)n1 | -1.66%
COc1ccc(CNC(=O)c2nc(SC(C)C)ncc2Cl)cc1 | -9.85%
Cc1cc(NC(=O)Nc2ccc(Cl)cc2)n(-c2ccccc2)n1 | active: 40.6%
Cc1ccn2c(Nc3ccc4c(c3)OCO4)c(-c3ccc(N(C)C)cc3)nc2c1 | -23.4%
CCN1CCN(c2oc(-c3ccc(COc4ccc(C)cc4)o3)nc2C#N)CC1 | -10.3%
COc1ccc2oc(-c3cccc(NC(=O)c4ccc(C#N)cc4F)c3)nc2c1 | 6.38%
CCCCNC(=O)c1ccc2c(c1)NC(=O)C(CS(=O)(=O)Cc1cccc(C)c1)N2 (stereo unspecified) | 14.6%
CC1=C(C(=O)Nc2cccnc2)C(c2cccc(F)c2)n2nc(SCc3ccccc3)nc2N1 (stereo unspecified) | -2.95%
CC(C)C(=O)N1c2ncnn2C2(CCCCC2)[C@@H]2CCCC[C@@H]21 | -9.71%
COc1cc(C(=O)Nc2ccc3[nH]c(=O)sc3c2)cc(OC)c1OC | 18.4%
COc1cccc(NC(=O)Cn2c(=O)n(-c3ccc(Cl)cc3)c(=O)c3oc4ccccc4c32)c1 | -8.26%
Cc1ccc(S(=O)(=O)N2CCN(Cc3noc(CCC(=O)N4CCCCC4)n3)CC2)c(C)c1 | -0.667%
COc1ccc(C2CC(=O)N(Cc3ccc(F)cc3)c3ccccc3S2)cc1 (stereo unspecified) | 2.76%
COc1cccc(C(=O)NCC(=O)OCc2cc(=O)n3c(C)csc3n2)c1 | 19.8%
CC(C)Cn1c(=O)c2sccc2n2c(CCCC(=O)NCCc3ccccc3)nnc12 | -13.8%
CCN1CCN(c2cc3c(cc2F)c(=O)c(S(=O)(=O)c2ccc(OC)cc2)cn3CC)CC1 | 7.24%
Cn1c(C(=O)NCc2ccccc2F)cc2oc3ccccc3c21 | -0.263%
Cc1c(C(=O)Nc2cccc(C(F)(F)F)c2)sc2nc3n(c(=O)c12)CCCC3 | 20%
O=C(c1ccco1)n1nc(-c2ccccc2)nc1NCc1ccc(F)cc1 | 4.95%
Cc1cc(C)nc(/N=C(\N)Nc2ccc(CC(=O)OC(C)C)cc2)n1 | active: 58.6%
COc1cccc2sc(N(Cc3cccnc3)C(=O)Cc3ccccc3)nc12 | 3.63%

SMILES | inhibition
CC1=C(C(=O)Nc2ccc(C)cc2C)C(C(C)C)n2nc(SCc3ccccc3Cl)nc2N1 (stereo unspecified) | 0.924%
CCN(CC)CCCNC(=O)CSc1c2c(nc3cc(Cl)ccc13)CCCC2 | 23.5%
Cc1ccc(S(=O)(=O)c2cn(CC(=O)Nc3ccc4c(c3)OCO4)c3ccccc3c2=O)cc1 | -10.8%
Cc1sc2ncn(CC(=O)N3CCN(c4ccc(F)cc4)CC3)c(=O)c2c1S(=O)(=O)N1CCCCC1 | -12.8%
Cc1ccc(Nc2nc3c(S(=O)(=O)c4ccccc4)nnn3c3ccsc23)c(C)c1 | 8.4%
Cc1cccc2sc(N(CCCN(C)C)C(=O)c3ccc(Cl)s3)nc12 | 16.1%
COc1cc(C2C(C(=O)OCC(C)C)=C(C)N=C3SCCC(=O)N32)ccc1OCc1ccccc1 (stereo unspecified) | 5.6%
Cc1cccc(NC(=O)Cn2nnc(C(=O)Nc3ccc(F)c(Cl)c3)c2N)c1 | -3.15%
COc1ccc(-c2nc(-c3ccncc3)no2)c(OC)c1 | active: 57.8%
COc1cccc(NC(=O)CSc2nc(=O)n(Cc3ccco3)c3c2CCC3)c1 | -17.1%
CCC(CC)c1nn2c(=O)cc(COc3ccc(NC(=O)c4ccc(C)cc4)cc3)nc2s1 | 1.45%
Cc1nn(C(=O)c2ccc(Cl)cc2)c(C)c1S(=O)(=O)N1CCOCC1 | 0.331%
COc1ccc(NC(=O)CC2C(=O)N(c3cccc(C)c3)C(=O)N2Cc2cccnc2)cc1 (stereo unspecified) | -1.18%
CCc1ccc(CNC(=O)CN2C(=O)CSc3c2c(C)nn3-c2ccccc2)cc1 | -3.21%
Cc1cn2c(=O)cc(COC(=O)c3cccc(NC(=O)c4ccccc4Cl)c3)nc2s1 | 6.63%
Cc1ccc(CNc2ncnc3c2nnn3C)cc1 | 14.5%
O=C1CC(N2CCC(O)(c3ccc(Cl)cc3)CC2)C(=O)N1 (stereo unspecified) | active: 31.3%
CCN(C(=O)COC(=O)/C=C/c1nc2ccccc2s1)C1CCS(=O)(=O)C1 (stereo unspecified) | active: 31.7%
C/C(=N\NC(=O)c1c(C)nc2ccccn12)c1ccccc1F | active: 31.5%
O=C(Cn1ncc2c3ccccc3n(Cc3ccc(F)cc3)c2c1=O)NCCC1=CCCCC1 | 9.27%
Cc1ccc(C)c(CN2C(=O)c3ccccc3S(=O)(=O)c3ccc(C(=O)NCCCN4CCCC(C)C4)cc32)c1 (stereo unspecified) | -7.69%
COc1ccc(SCCC(=O)NCc2ccncc2)cc1 | active: 32.1%
CSc1ccc(CCNS(=O)(=O)c2ccc3c(c2)C(C)(C)C(=O)N3C)cc1 | 0.451%
CC(C)c1ccc(NC(=O)C(C)N(c2ccccc2)S(C)(=O)=O)cc1 (stereo unspecified) | -0.691%

SMILES | inhibition
COc1cc2c(cc1O)C(Cc1ccc(O)cc1)NCC2 (stereo unspecified) | active: 74.1%
Cc1ccc(C(c2cccc(Br)c2)c2c(C)[nH]c3ccccc23)s1 (stereo unspecified) | 3.71%
O=c1c2ccccc2n2c(-c3ccc(Cl)cc3)nnc2n1CCc1ccccc1 | 21%
CCc1ccc(-n2nc(C)c3c(C)cc(=O)n(CC(=O)Nc4ccc(C(C)=O)cc4)c32)cc1 | -1.32%
COCCCNc1nc(NCc2cccc(Cl)c2)c2cnn(C)c2n1 | -4.63%
COc1ccc(-c2nc(CSc3nnc(C)n4c3cc3occc34)c(C)o2)cc1OC | 2.1%
COc1cc(OC)c(NC(=O)N2CC3CCCN3c3ccccc32)cc1Cl (stereo unspecified) | -3.52%
CC(C)C(NS(=O)(=O)c1ccc2c(c1)oc(=O)n2C)C(=O)NCCc1ccccc1 (stereo unspecified) | -21.6%
COc1ccc(C2C(C(=O)Nc3cccnc3)=C(C)Nc3nc(-c4ccccc4)nn32)cc1OC (stereo unspecified) | -4.35%
O=c1[nH]c(=O)n(C2CCCCC2)c(O)c1C1=Nc2ccccc2SC(c2ccccc2)C1 (stereo unspecified) | 13.5%
CN(C)c1ccc(/C=C/c2noc(-c3ccccc3O)n2)cc1 | 12.4%
COc1ccccc1NC(=O)C1=C(C)Nc2nc(SCc3ccccc3Cl)nn2C1c1ccccn1 (stereo unspecified) | 12.9%
O=C(NC1CC(=O)N(c2ccccc2)C1)c1ccc(S(=O)(=O)N2CCCCC2)cc1 (stereo unspecified) | 24.2%
Oc1c(CN2CCN(c3ccc(F)cc3)CC2)cc(Cl)c2cccnc12 | active: 49.1%
Cc1nn2c(C)c(C(=O)NCc3ccco3)cnc2c1-c1ccccc1 | 0.524%
Cc1nn(C(=O)c2ccc(Cl)cc2)c(C)c1S(=O)(=O)N1CCCCCC1 | 5.81%
Cc1ccc(N2CCn3c2nc2c3c(=O)n(CCCc3ccccc3)c(=O)n2C)cc1C | -13.8%
CCc1ccc(OCC(=O)NNC(=O)c2ccc(NC(=O)C3CC3)cc2)cc1 | active: 30.5%
COc1ccc(-n2nc(C(=O)N3CCCC(C)C3)c3c4ccccc4n(C)c3c2=O)cc1Cl (stereo unspecified) | 8.41%
CCOC(=O)c1ccc(NC(=O)CSc2c3c(nc4cc(Cl)ccc24)CCCC3)cc1 | 4.34%
COc1cc(OC)c(NC(=O)CCCn2nc(C)c3c(C)n(-c4ccccc4)nc3c2=O)cc1Cl | 5.58%
CSc1ncc(Cl)c(C(=O)Nc2c(C(=O)Nc3cccc(Cl)c3)oc3ccccc23)n1 | 10%
COc1ccc(CNC(=O)CCCN2C(=O)COc3ccc(C)cc32)cc1 | -1.59%
Cc1ccc(N2CCN(C(=O)c3cnc(N4CCCCC4)c4ccccc34)CC2)c(C)c1 | 0.0828%
